# Source: PubChem BioAssay (EPA / NIEHS)
# For some of these results: Most of the hits are listed elsewhere, so they are rarer here than in the full data. The list shows a part of the results, in another mix than the full data. Records with an inconclusive call do not appear. Activity calls are given as the source filed them. Rule for the calls, unless noted: active = hit-call score of the fitted dose curve at least 0.9, where 1 is the maximum; inactive = score below 0.9.
# How the values were obtained:
# [1] = read-out: adenosine kinase (ADK) gene, ADK (gene 132); assay: LTEA_HepaRG_ADK: Life Technologies and Expression Analysis (LTEA) Assay for adenosine kinase (ADK) gene using HepaRG (AID 2283471); conditions: actives raise or lower the signal; mRNA level, 48 h
# Procedure, shortened: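 Following 48 h exposure of HepaRG cells in 0.5% DMSO (top concentration 100 uM, duplicate wells), ADK mRNA induction or suppression was measured by qRT-PCR, normalised to ACTB/GAPDH/POLR2A, and fitted bidirectionally relative to vehicle.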
# [2] = read-out: Pro-epidermal growth factor (Homo sapiens) (UniProt P01133); assay: LTEA_HepaRG_EGF: Life Technologies and Expression Analysis (LTEA) Assay for Epidermal growth factor (EGF) using HepaRG (AID 2283489); conditions: actives raise or lower the signal; mRNA level, 48 h
# Procedure, shortened: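 HepaRG cells (~100,000/well, 48 h pre-culture) exposed in duplicate for 48 h in serum-free induction medium to 8 half-log concentrations up to 100 uM in 0.5% DMSO. EGF mRNA by qRT-PCR, normalized to ACTB/GAPDH/POLR2A; bidirectional fit versus DMSO.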
# [3] = read-out: Cytochrome P450 4A22 (Homo sapiens) (UniProt Q5TCH4); assay: LTEA_HepaRG_CYP4A22: Life Technologies and Expression Analysis (LTEA) Assay for Cytochrome P450 4A22 (CYP4A22) using HepaRG (AID 2283495); conditions: actives raise or lower the signal; mRNA level, 48 h
# Procedure, shortened: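 Differentiated HepaRG cells in serum-free induction medium exposed 48 h in duplicate to eight half-log concentrations up to 100 uM in 0.5% DMSO. CYP4A22 mRNA quantified by TaqMan qRT-PCR, normalized to ACTB, GAPDH and POLR2A; bidirectional fit versus DMSO.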
# [4] = biological target: Cellular tumor antigen p53 (Homo sapiens) (UniProt P04637); assay: TOX21_p53_BLA_p2_ratio: Tox21 HCT-116 p53 Agonism Beta-lactamase Assay, Ratio, Phase 2 (AID 2283592; active = hit-call score of the fitted dose curve at least 0.9, where 1 is the maximum)
# Sequence of UniProt P04637 (P04637 whole entry, looked up): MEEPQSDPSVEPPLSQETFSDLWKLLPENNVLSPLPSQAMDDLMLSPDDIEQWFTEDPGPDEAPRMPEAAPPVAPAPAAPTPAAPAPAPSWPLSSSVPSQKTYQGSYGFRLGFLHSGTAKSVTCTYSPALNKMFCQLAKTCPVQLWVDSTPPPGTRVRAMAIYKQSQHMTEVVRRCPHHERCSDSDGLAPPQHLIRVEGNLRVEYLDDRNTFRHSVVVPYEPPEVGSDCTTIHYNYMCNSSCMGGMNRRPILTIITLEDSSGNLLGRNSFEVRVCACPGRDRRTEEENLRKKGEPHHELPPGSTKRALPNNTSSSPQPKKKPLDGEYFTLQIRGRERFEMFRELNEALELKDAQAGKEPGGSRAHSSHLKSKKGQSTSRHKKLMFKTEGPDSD
# Procedure, shortened: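 HCT-116 cells with p53-responsive beta-lactamase reporter, 4000 cells/well, preincubated 5 h, then compound in DMSO (217-fold dilution) for 16 h at 37C. CCF4-AM substrate 2 h at room temperature; 460/530 nm emission ratio fitted upward versus DMSO.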
# [5] = CCTE_Shafer_MEA_dev_burst_duration_mean: CCTE's Neural Network Formation Assay for Mean Burst Duration, Shafer Lab (AID 2284045);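 note: curve fitted for loss meaning shorter burst duration than DMSO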
# Procedure, shortened: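 Primary rat cortical neurons on 48-well 16-electrode MEA plates, exposed from day 0 with renewal at DIV 5 and 9; spontaneous activity recorded on days 5, 7, 9, 12. Well-mean burst duration across bursting electrodes, collapsed as trapezoidal AUC; DMSO baseline.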
# [6] = CCTE_Mundy_HCI_iCellGluta_NOG_NeuronCount: CCTE's Neurite Outgrowth Assay in iCellGluta cells for Neuron Count, Mundy Lab (AID 2284340; active = hit-call score of the fitted dose curve at least 0.9, where 1 is the maximum;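 note: cells fixed about 48 h after compound addition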)
# Procedure, shortened: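 Neuron count read by automated high-content imaging of Hoechst 33342 and betaIII-tubulin/Alexa Fluor-488 labelling in human iPSC glutamatergic neurons. Activity fitted relative to DMSO.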
# [7] = CEETOX_H295R_DOC: CeeTox H295R High-throughput Steroidogenesis Assay for DOC (AID 2283439); conditions: actives raise or lower the signal
# Procedure, shortened: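 H295R adrenal cells prestimulated 48 h with 10 uM forskolin, then exposed 48 h to test chemical (0.1% DMSO final). Medium 11-deoxycorticosterone extracted with MTBE, quantified by HPLC-MS/MS; bidirectional fit versus DMSO baseline; MTT viability in same wells.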
# [8] = CEETOX_H295R_ESTRADIOL: CeeTox H295R High-throughput Steroidogenesis Assay for Estradiol (AID 2283440); conditions: actives raise or lower the signal;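 note: estradiol secreted into medium quantified by LC-MS/MS after dansyl derivatisation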
# Procedure, shortened: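 H295R cells pre-stimulated 48 h with 10 uM forskolin, then exposed 48 h to chemical in 0.1% DMSO. Medium estradiol quantified by MTBE extraction, dansyl derivatisation and HPLC-MS/MS; bidirectional fit versus DMSO; MTT viability required >/=70%.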
# [9] = CEETOX_H295R_ESTRONE: CeeTox H295R High-throughput Steroidogenesis Assay for Estrone (AID 2283441); conditions: actives raise or lower the signal;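 note: estrone secreted into medium measured by LC-MS/MS after dansyl derivatization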
# Procedure, shortened: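 H295R cells; 48 h forskolin (10 uM) prestimulation; 48 h compound exposure, 0.1% DMSO final. Medium estrone: MTBE extraction, dansyl derivatization, HPLC-MS/MS. Bidirectional fit vs DMSO.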
# [10] = CEETOX_H295R_MTT_cell_viability: Viability Assessment in the CeeTox HT-H295R MTT Assay (AID 2283718)
# [11] = read-out: Cytochrome P450 (CYP1A1), CYP1A1 (gene 1543); assay: LTEA_HepaRG_CYP1A1: Life Technologies and Expression Analysis (LTEA) Assay for Cytochrome P450 (CYP1A1) using HepaRG (AID 2283454); conditions: actives raise or lower the signal; mRNA level, 48 h
# Procedure, shortened: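 Differentiated human HepaRG cells, after 48 h plating, exposed in duplicate for 48 h in serum-free induction medium to 8 half-log concentrations up to 100 uM in 0.5% DMSO. CYP1A1 mRNA by qRT-PCR, normalized to ACTB/GAPDH/POLR2A; bidirectional fit versus DMSO.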
# [12] = read-out: Apolipoprotein A-V (APOA5) gene, APOA5 (gene 116519); assay: LTEA_HepaRG_APOA5: Life Technologies and Expression Analysis (LTEA) Assay for Apolipoprotein A-V (APOA5) gene using HepaRG (AID 2283474); conditions: actives raise or lower the signal; mRNA level, 48 h
# Procedure, shortened: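 Differentiated HepaRG cells in serum-free induction medium, exposed 48 h in duplicate to eight half-log concentrations topping at 100 uM (0.5% DMSO). APOA5 mRNA by Fluidigm TaqMan qRT-PCR, normalized to ACTB, GAPDH and POLR2A; bidirectional fit versus DMSO.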
# [13] = LTEA_HepaRG_LDH_cytotoxicity: Cytotoxicity Assessment in the Life Technologies and Expression Analysis (LTEA) Assay (AID 2283563; active = hit-call score of the fitted dose curve at least 0.9, where 1 is the maximum)
# Procedure, shortened: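 Differentiated HepaRG cells in serum-free induction medium, exposed 48 h in duplicate to 8 half-log concentrations up to 100 uM in 0.5% DMSO. Cytotoxicity from LDH measured in spent medium, fit relative to DMSO.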
# [14] = read-out: growth arrest and DNA damage 45 (GADD45G), GADD45G (gene 10912); assay: LTEA_HepaRG_GADD45G: Life Technologies and Expression Analysis (LTEA) Assay for growth arrest and DNA damage 45 (GADD45G) using HepaRG (AID 2283499); conditions: actives raise or lower the signal; mRNA level, 48 h
# Procedure, shortened: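 Differentiated human HepaRG cells, 48 h post-plating, exposed 48 h in serum-free induction medium to 8 half-log concentrations (top 100 uM, 0.5% DMSO) in duplicate. GADD45G mRNA measured by Fluidigm TaqMan qRT-PCR, normalized to ACTB, GAPDH, POLR2A; bidirectional fit versus DMSO.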
# [15] = read-out: JUN Transcription Factor, JUN (gene 3725); assay: LTEA_HepaRG_JUN: Life Technologies and Expression Analysis (LTEA) Assay for JUN Transcription Factor using HepaRG (AID 2283513); conditions: actives raise or lower the signal; mRNA level, 48 h
# Procedure, shortened: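 Differentiated HepaRG cells were exposed to chemicals for 48 h in serum-free induction medium, 8 concentrations from 100 uM in half-log steps, 0.5% DMSO vehicle, in duplicate. JUN mRNA was quantified by TaqMan qRT-PCR, normalized to ACTB, GAPDH, POLR2A.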
# Sequence of Cytochrome P450 4A22 (Homo sapiens) (Q5TCH4 whole entry, looked up): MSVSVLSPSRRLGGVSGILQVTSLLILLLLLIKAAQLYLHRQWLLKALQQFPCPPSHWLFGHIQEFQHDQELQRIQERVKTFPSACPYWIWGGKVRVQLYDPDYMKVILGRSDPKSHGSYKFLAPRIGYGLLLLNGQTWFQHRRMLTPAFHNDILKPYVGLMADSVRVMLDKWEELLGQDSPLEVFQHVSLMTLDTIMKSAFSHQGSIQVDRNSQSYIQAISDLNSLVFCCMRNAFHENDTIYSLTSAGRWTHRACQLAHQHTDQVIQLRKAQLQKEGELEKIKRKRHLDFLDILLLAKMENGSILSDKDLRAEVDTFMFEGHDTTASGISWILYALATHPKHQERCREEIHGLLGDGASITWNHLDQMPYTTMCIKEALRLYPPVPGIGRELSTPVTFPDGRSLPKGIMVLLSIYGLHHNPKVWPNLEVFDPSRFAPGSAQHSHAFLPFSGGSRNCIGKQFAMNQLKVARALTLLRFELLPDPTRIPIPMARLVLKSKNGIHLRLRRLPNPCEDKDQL
smiles,measurement,setting,value
C[C@]12C=CC(=O)C=C1CC[C@H]1[C@@H]3C[C@@H](O)[C@](O)(C(=O)CO)[C@@]3(C)C[C@H](O)[C@@]12F,outcome,[1],inactive
same,outcome,[2],inactive
same,outcome,[3],inactive
same,outcome,[4],inactive
same,AC50,[5],active: 15 µM
same,AC50,[6],active: 24.2 µM
CC(C)=CCCC(C)=CC=O,outcome,[7],inactive
same,outcome,[8],inactive
same,outcome,[9],inactive
same,outcome,[10],inactive
COc1cc(S(=O)(=O)O)c(C)cc1N=Nc1c(O)ccc2cc(S(=O)(=O)O)ccc12,AC50,[11],active: 9.92 µM
same,outcome,[12],inactive
same,outcome,[13],inactive
CC[C@H]1OC(=O)[C@H](C)[C@@H](O[C@H]2C[C@@](C)(OC)[C@@H](O)[C@H](C)O2)[C@H](C)[C@@H](O[C@@H]2O[C@H](C)C[C@H](N(C)C)[C@H]2O)[C@](C)(O)C[C@@H](C)C(=O)[C@H](C)[C@@H](O)[C@]1(C)O,outcome,[1],inactive
same,outcome,[14],inactive
same,outcome,[15],inactive
